Measured values: the supplement of paper PMC4967469
IC50 is the fitted dose that halves viability relative to control wells, and lower means more sensitive; fits outside the tested doses are given as limits. AUC sums up the same curve from the lowest dose to the 256-fold higher top dose; values near 1 show little effect. For some of these results: The top dose, if marked as inferred, was derived from the fitted curves, not read from the paper. For some of these results: Where an entry number is given, a second screen of the drug exists; the two often differ.

Columns and labels:
Test in all cases: Viability of human cancer cell lines after 72 h of drug (GDSC screen)
Docetaxel = compound: CC(=O)O[C@@]12CO[C@@H]1C[C@H](O)[C@@]1(C)C(=O)[C@H](O)C3=C(C)[C@@H](OC(=O)[C@H](O)[C@@H](NC(=O)OC(C)(C)C)c4ccccc4)C[C@@](O)([C@@H](OC(=O)c4ccccc4)[C@H]21)C3(C)C [Docetaxel]; conditions: top dose 0.0125 µM
Method: (§1)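 Human cancer cell lines in 384-well plates, medium with 10% serum, drug for 72 h over a 256-fold dose range (nine 2-fold or five 4-fold steps up to the top dose). Adherent lines were fixed and stained with the nucleic acid dye Syto60, suspension lines read with resazurin; signal relative to control wells, capped at 0 and 100%. One two-parameter sigmoid per drug and line, fitted in a mixed model over all curves with the slope shared within a line.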

YM155 = compound: COCC[n+]1c2c(n(Cc3cnccn3)c1C)C(=O)c1ccccc1C2=O [YM155]; conditions: top dose 5.12 µM
Method: as §1

AMG-706 = compound: CC1(C)CNc2cc(NC(=O)c3cccnc3NCc3ccncc3)ccc21 [AMG-706]; conditions: top dose 2 µM; top dose inferred
Method: as §1

JNJ-26854165 = compound: c1ccc2c(CCNc3ccc(Nc4ccncc4)cc3)c[nH]c2c1 [JNJ-26854165]; conditions: top dose 10 µM
Method: as §1

CGP-60474 = compound: OCCCNc1cc(-c2ccnc(Nc3cccc(Cl)c3)n2)ccn1 [CGP-60474]; conditions: top dose 0.256 µM; top dose inferred
Method: as §1

FTI-277 = compound: COC(=O)[C@H](CCSC)NC(=O)c1ccc(NC[C@@H](N)CS)cc1-c1ccccc1 [FTI-277]; conditions: top dose 1.024 µM; top dose inferred
Method: as §1

JNK Inhibitor VIII = compound: CCOc1nc(NC(=O)Cc2cc(OC)ccc2OC)cc(N)c1C#N [JNK Inhibitor VIII]; conditions: top dose 10 µM; top dose inferred
Method: as §1

Belinostat = compound: O=C(/C=C/c1cccc(S(=O)(=O)Nc2ccccc2)c1)NO [Belinostat]; conditions: top dose 20 µM; top dose inferred
Method: as §1

Cyclopamine = compound: CC1=C2C[C@H]3[C@@H](CC=C4C[C@@H](O)CC[C@@]43C)[C@@H]2CC[C@]12O[C@@H]1C[C@H](C)CN[C@H]1[C@H]2C [Cyclopamine]; conditions: top dose 16 µM; top dose inferred
Method: as §1

OSI-906 = compound: C[C@]1(O)C[C@@H](c2nc(-c3ccc4ccc(-c5ccccc5)nc4c3)c3c(N)nccn32)C1 [OSI-906]; conditions: top dose 2.56 µM; top dose inferred
Method: as §1

SB-715992 = compound: Cc1ccc(C(=O)N(CCCN)[C@@H](c2nc3cc(Cl)ccc3c(=O)n2Cc2ccccc2)C(C)C)cc1 [SB-715992]; conditions: top dose 0.128 µM; top dose inferred
Method: as §1

JQ1 = compound: Cc1sc2c(c1C)C(c1ccc(Cl)cc1)=N[C@@H](CC(=O)OC(C)(C)C)c1nnc(C)n1-2 [JQ1]
Method: as §1

NVP-TAE684 = compound: COc1cc(N2CCC(N3CCN(C)CC3)CC2)ccc1Nc1ncc(Cl)c(Nc2ccccc2S(=O)(=O)C(C)C)n1 [NVP-TAE684]; conditions: top dose 2 µM
Method: as §1

NSC-207895 = compound: CN1CCN(c2ccc([N+](=O)[O-])c3no[n+]([O-])c23)CC1 [NSC-207895]; conditions: top dose 20 µM; top dose inferred
Method: as §1

[1] = top dose 1 µM, screen: GDSC drug entry 1218, top dose inferred
[2] = top dose 2.56 µM, screen: GDSC drug entry 163

Row | Cell Line | AUC (Docetaxel) | IC50 (Docetaxel) [nM] | AUC (YM155) | IC50 (YM155) [nM] | AUC (AMG-706) | IC50 (AMG-706) [nM] | AUC (JNJ-26854165) | IC50 (JNJ-26854165) [nM] | AUC (CGP-60474) | IC50 (CGP-60474) [nM] | AUC (FTI-277) | IC50 (FTI-277) [nM] | AUC (JNK Inhibitor VIII) | IC50 (JNK Inhibitor VIII) [nM] | AUC (Belinostat) | IC50 (Belinostat) [nM] | AUC (Cyclopamine) | IC50 (Cyclopamine) [nM] | AUC (OSI-906) | IC50 (OSI-906) [nM] | AUC (SB-715992) | IC50 (SB-715992) [nM] | AUC (JQ1; [1]) | IC50 (JQ1; [1]) [nM] | AUC (JQ1; [2]) | IC50 (JQ1; [2]) [nM] | AUC (NVP-TAE684) | IC50 (NVP-TAE684) [nM] | AUC (NSC-207895) | IC50 (NSC-207895) [nM]
1 | Farage (B-cell lymphoma, suspension) | 0.897 | 10.6 | 0.016 | < 20 | 0.993 | > 2000 | 0.914 | > 10000 | 0.606 | 29.6 | 0.988 | > 1020 | 0.993 | > 10000 | 0.275 | 332 | 0.966 | > 16000 | 0.993 | > 2560 | 0.624 | 16.4 | 0.974 | > 1000 | 0.809 | 1050 | 0.96 | > 2000 | 0.902 | 17700
2 | GB-1 (glioma, adherent) | 0.788 | 6.55 | 0.045 | < 20 | 0.982 | > 2000 | 0.952 | > 10000 | 0.591 | 29.8 | 0.976 | > 1020 | 0.968 | > 10000 | 0.249 | 204 | 0.911 | > 16000 | 0.768 | 1130 | 0.866 | > 128 | 0.98 | > 1000 | 0.812 | 1690 | 0.642 | 332 | 0.793 | 11000
3 | GCIY (stomach, adherent) | 0.919 | > 12.5 | 0.245 | 52.6 | 0.968 | > 2000 | 0.846 | 8780 | 0.774 | 114 | 0.973 | > 1020 | 0.979 | > 10000 | 0.378 | 550 | 0.944 | > 16000 | 0.9 | > 2560 | 0.933 | > 128 | – | – | 0.732 | 807 | 0.755 | 761 | 0.781 | 9470
4 | GI-ME-N (neuroblastoma, adherent) | 0.717 | 4.07 | 0.053 | < 20 | 0.962 | > 2000 | 0.759 | 4720 | 0.708 | 77.2 | 0.944 | > 1020 | 0.977 | > 10000 | 0.316 | 314 | 0.94 | > 16000 | 0.761 | 1240 | 0.616 | 18.7 | 0.955 | > 1000 | 0.718 | 844 | 0.763 | 979 | 0.936 | > 20000
